Measurements from the supplement of paper PMC4967469.

What was measured:
Assay in all cases: Viability of human cancer cell lines after 72 h of drug (GDSC screen)
SB 216763 = compound: Cn1cc(C2=C(c3ccc(Cl)cc3Cl)C(=O)NC2=O)c2ccccc21 [SB 216763]; settings: top dose 10 µM; top dose inferred
Description: (§1)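 Human cancer cell lines in 384-well plates, medium with 10% serum, drug for 72 h over a 256-fold dose range (nine 2-fold or five 4-fold steps up to the top dose). Adherent lines were fixed and stained with the nucleic acid dye Syto60, suspension lines read with resazurin; signal relative to control wells, capped at 0 and 100%. One two-parameter sigmoid per drug and line, fitted in a mixed model over all curves with the slope shared within a line.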

AR-42 = compound: CC(C)[C@H](C(=O)Nc1ccc(C(=O)NO)cc1)c1ccccc1 [AR-42]; settings: top dose 5.12 µM; top dose inferred
Description: as §1

GDC0941 = compound: CS(=O)(=O)N1CCN(Cc2cc3nc(-c4cccc5[nH]ncc45)nc(N4CCOCC4)c3s2)CC1 [GDC0941]; settings: top dose 4 µM; screen: GDSC drug entry 1527; top dose inferred
Description: as §1

CEP-701 = compound: C[C@]12O[C@H](C[C@]1(O)CO)n1c3ccccc3c3c4c(c5c6ccccc6n2c5c31)CNC4=O [CEP-701]; settings: top dose 2 µM; top dose inferred
Description: as §1

Pazopanib = compound: Cc1ccc(Nc2nccc(N(C)c3ccc4c(C)n(C)nc4c3)n2)cc1S(N)(=O)=O [Pazopanib]; settings: top dose 8 µM
Description: as §1

Row | Cell Line | AUC (SB 216763) | IC50 (SB 216763) [nM] | AUC (AR-42) | IC50 (AR-42) [nM] | AUC (GDC0941) | IC50 (GDC0941) [nM] | AUC (CEP-701) | IC50 (CEP-701) [nM] | AUC (Pazopanib) | IC50 (Pazopanib) [nM]
1 | OV-7 (ovary, adherent) | 0.922 | > 10000 | 0.57 | 550 | 0.569 | 425 | 0.902 | > 2000 | – | –
2 | OV-17R (ovary, adherent) | 0.98 | > 10000 | 0.463 | 243 | 0.801 | 2930 | 0.811 | 1630 | – | –
3 | OV-56 (ovary, adherent) | 0.985 | > 10000 | 0.627 | 705 | 0.906 | > 4000 | 0.792 | 868 | – | –
4 | OVCA433 (ovary, adherent) | 0.985 | > 10000 | 0.711 | 1360 | 0.717 | 1110 | 0.616 | 270 | – | –
5 | OVCAR-8 (ovary, adherent) | 0.952 | > 10000 | 0.314 | 103 | 0.87 | 3070 | – | – | 0.965 | > 8000
6 | QGP-1 (pancreas, adherent) | 0.962 | > 10000 | 0.483 | 281 | 0.941 | > 4000 | 0.917 | > 2000 | – | –
7 | RCC-ER (kidney, adherent) | 0.879 | > 10000 | 0.834 | 3920 | 0.702 | 995 | 0.69 | 456 | – | –
8 | RCH-ACV (B-cell leukaemia, suspension) | 0.99 | > 10000 | – | – | 0.43 | 167 | 0.314 | 41.9 | – | –
9 | RH-18 (rhabdomyosarcoma, adherent) | 0.984 | > 10000 | – | – | 0.794 | 2160 | 0.881 | > 2000 | – | –
10 | SK-MEL-31 (melanoma, adherent) | 0.981 | > 10000 | – | – | 0.869 | > 4000 | 0.82 | 1590 | – | –
11 | SNU-387 (liver, adherent) | 0.976 | > 10000 | 0.476 | 273 | – | – | 0.632 | 305 | – | –
12 | SUP-B8 (B-cell leukaemia, suspension) | 0.989 | > 10000 | – | – | 0.987 | > 4000 | 0.239 | 22.1 | – | –
13 | Saos-2 (osteosarcoma, adherent) | 0.974 | > 10000 | 0.975 | > 5120 | 0.716 | 1350 | – | – | 0.866 | > 8000
14 | TOV-21G (ovary, adherent) | – | – | 0.816 | 3150 | 0.923 | > 4000 | 0.242 | 20.7 | 0.983 | > 8000
15 | U-266 (myeloma, semi-adherent) | 0.894 | > 10000 | – | – | – | – | – | – | – | –
16 | VMRC-LCD (lung adenocarcinoma, adherent) | 0.992 | > 10000 | – | – | 0.966 | > 4000 | 0.541 | 159 | – | –
17 | ZR-75-30 (breast, adherent) | 0.941 | > 10000 | – | – | – | – | 0.905 | > 2000 | – | –

The IC50 comes from the fitted curve, where viability falls to half of the control; a limit (>, <) means that the fit lies beyond the doses tested. AUC sums up the same curve from the lowest dose to the 256-fold higher top dose; it is 1 without any effect and falls as sensitivity rises. For part of these data: An inferred top dose was derived from the fitted curves, not read from the paper. For part of these data: An entry number marks a drug with two screens in the source, which often give different values.
